B1: PhoQ; a variant is named by its letters at X, in order, P23837 (parent)
chain: MKKLLRLFFPLSLRVRFLLATAAVVLVLSLAYGMVALIGYSVSFDKTTFRLLRGESNLFYTLAKWENNKLHVELPENIDKQSPTMTLIYDENGQLLWAQRDVPWLMKMIQPDWLKSNGFHEIEADVNDTSLLLSGDHSIQQQLQEVREDDDDAEMTHSVAVNVYPATSRMPKLTIVVVDTIPVELKSSYMVWSWFIYVLSANLLLVIPLLWVAAWWSLRPIEALAKEVRELEEHNRELLNPATTRELTSLVRNLNRLLKSERERYDKYRTTLTDLTHSLKTPLXXLQXXLRSLRSEKMSVSDAEPVMLEQISRISQQIGYYLHRASMRGGTLLSRELHPVAPLLDNLTSALNKVYQRKGVNISLDISPEISFVGEQNDFVEVMGNVLDNACKYCLEFVEISARQTDEHLYIVVEDDGPGIPLSKREVIFDRGQRVDTLRPGQGVGLAVAREITEQYEGKIVAGESMLGGARMEVIFGRQHSAPKDE

The other results are listed elsewhere or left out.

The variants in the assay derive from B1. Put plainly: enrichment ratio after two sorts for PhoP signalling (ratio (wild type AVST 3.29)); higher = more functional. As to conditions: with PhoP (E. coli).
Regarding DAHK, the enrichment ratio was not above 0.25. In the case of MFCP, the enrichment ratio is not above 0.25. On to KQMP, for which the enrichment ratio was not above 0.25. On to ADAM, for which the enrichment ratio came out at 3.24. For DSPN, the enrichment ratio was not above 0.25. As for VLTK, the enrichment ratio was not above 0.25.

As to FECL, the enrichment ratio amounted to 7.61.

On to HKWD, for which the enrichment ratio is not above 0.25. Regarding FNEG, the enrichment ratio was not above 0.25. As for GTFY, the enrichment ratio is not above 0.25. In the case of FCFA, the enrichment ratio was not above 0.25.

Regarding RVWD, the enrichment ratio was not above 0.25. Turning to WCWD, the enrichment ratio is not above 0.25. Regarding NNTH, the enrichment ratio was not above 0.25. Turning to SNID, the enrichment ratio was not above 0.25. In the case of YVWS, the enrichment ratio was not above 0.25.

Turning to CLRM, the enrichment ratio was not above 0.25. Consider NNPW, for which the enrichment ratio is not above 0.25. FHLH: the enrichment ratio is not above 0.25. As to WYRP, the enrichment ratio is not above 0.25. Take WEWR: the enrichment ratio was not above 0.25. The value for RNSA was not above 0.25. As for NRSM, the enrichment ratio is not above 0.25.

Turning to FMAW, the enrichment ratio is not above 0.25. For RANS, the enrichment ratio is not above 0.25. The value for QHSD was not above 0.25; that for VTNE was not above 0.25. The same measure for IHNQ: not above 0.25. In the case of FGRA, the enrichment ratio came out at 0.331.

Turning to YDQV, the enrichment ratio is not above 0.25.

On to NCHP, for which the enrichment ratio was not above 0.25. As for MGMD, the enrichment ratio is not above 0.25. With YQAC, the enrichment ratio is not above 0.25. The same measure for MAGT: not above 0.25. The same measure for TCMH: 15.1; for YFTW: not above 0.25.

For EHRE, the enrichment ratio was not above 0.25. Regarding EAHH, the enrichment ratio was not above 0.25. Regarding TITD, the enrichment ratio is not above 0.25. Take PSVA: the enrichment ratio is not above 0.25. Consider FMLG, for which the enrichment ratio was 1.37. Consider TCRR, for which the enrichment ratio is not above 0.25. The same measure for YSDP: not above 0.25; for LRSY: not above 0.25; for QENN: 3.33. As to DNKY, the enrichment ratio was not above 0.25. In the case of TMNP, the enrichment ratio is not above 0.25. For the variant GECV, the enrichment ratio turned out to be 16.3. With DFWQ, the enrichment ratio is not above 0.25. Regarding GYRC, the enrichment ratio is not above 0.25. On to MYRE, for which the enrichment ratio is not above 0.25.

For the variant PIIY, the enrichment ratio is not above 0.25.

Turning to GCPR, the enrichment ratio is not above 0.25. As for HPWF, the enrichment ratio was not above 0.25. The same measure for IMVM: not above 0.25. Turning to ALVE, the enrichment ratio was not above 0.25.

With SFPI, the enrichment ratio is not above 0.25. For the variant ESAI, the enrichment ratio was not above 0.25. For the variant AIFY, the enrichment ratio was not above 0.25. The value for GQQL was not above 0.25; that for VGVR was not above 0.25; that for FDET was not above 0.25. Regarding SDCG, the enrichment ratio stood at 3.08.

As for DPRD, the enrichment ratio is not above 0.25.

LHEN: the enrichment ratio was not above 0.25. On to KNSR, for which the enrichment ratio is not above 0.25.

With ASYR, the enrichment ratio was not above 0.25. Take NYMC: the enrichment ratio is not above 0.25. On to GYRH, for which the enrichment ratio is not above 0.25. DYPN: the enrichment ratio was not above 0.25. The value for AFDG was not above 0.25. With FPYW, the enrichment ratio is not above 0.25. YKCP: the enrichment ratio is not above 0.25.

On to PMIH, for which the enrichment ratio is not above 0.25. For SINR, the enrichment ratio was 4.44.

For the variant PWMK, the enrichment ratio was not above 0.25. With GDAA, the enrichment ratio was not above 0.25. Regarding SILG, the enrichment ratio stood at 8.57. As to LQCQ, the enrichment ratio was not above 0.25. In the case of ARGT, the enrichment ratio is not above 0.25. The value for LNYC was not above 0.25.

RLVW: the enrichment ratio is not above 0.25.

Turning to IYMN, the enrichment ratio is not above 0.25. With RLLA, the enrichment ratio is not above 0.25.

Turning to YHRA, the enrichment ratio is not above 0.25. Consider FNGS, for which the enrichment ratio was not above 0.25.

As to KFYI, the enrichment ratio is not above 0.25. As for VWCR, the enrichment ratio is not above 0.25. As for MTMS, the enrichment ratio is not above 0.25. PSQN: the enrichment ratio is not above 0.25.

In the case of IELQ, the enrichment ratio was not above 0.25. Take MVAK: the enrichment ratio is 5.7. With KGTR, the enrichment ratio was not above 0.25.

Take GWVH: the enrichment ratio is not above 0.25. Take YKYI: the enrichment ratio is not above 0.25.

As to VDLK, the enrichment ratio was not above 0.25. The value for NGGV was not above 0.25. For QKRF, the enrichment ratio is not above 0.25. The value for YTLV was 15.7. Consider VADH, for which the enrichment ratio was not above 0.25. Regarding REVE, the enrichment ratio was not above 0.25.

In the case of EIHV, the enrichment ratio is not above 0.25. Consider LPCN, for which the enrichment ratio was not above 0.25. With HDEE, the enrichment ratio was not above 0.25. In the case of KLPM, the enrichment ratio was not above 0.25. As to AQFA, the enrichment ratio was not above 0.25.

For the variant DQGV, the enrichment ratio is not above 0.25. As for NFKL, the enrichment ratio was not above 0.25. The value for PGNG was not above 0.25; that for YDNV was not above 0.25; that for MNCT was not above 0.25. For the variant VSTP, the enrichment ratio was not above 0.25. The value for GNWE was not above 0.25. For the variant KQSN, the enrichment ratio is not above 0.25. For HMAP, the enrichment ratio was not above 0.25. For the variant ANHL, the enrichment ratio is not above 0.25.

Consider QDFT, for which the enrichment ratio is not above 0.25.

With ICKH, the enrichment ratio was not above 0.25. The value for QLDP was not above 0.25; that for GFYY was not above 0.25. As for PKGE, the enrichment ratio is not above 0.25. The same measure for THAL: 7.07. As for YATN, the enrichment ratio was not above 0.25. The same measure for RPIQ: not above 0.25; for PMWE: not above 0.25; for KGEA: not above 0.25.

Take NFYI: the enrichment ratio was not above 0.25. For YDEG, the enrichment ratio is not above 0.25. For the variant AYLF, the enrichment ratio was 2.34. Regarding AGRG, the enrichment ratio is not above 0.25. With MQKS, the enrichment ratio is not above 0.25. Regarding DNRG, the enrichment ratio is not above 0.25. The same measure for VNTV: 0.761; for PDTW: not above 0.25.

Turning to DKDF, the enrichment ratio is not above 0.25. PKYG: the enrichment ratio was not above 0.25. Take VMIA: the enrichment ratio was not above 0.25.

Turning to ENTY, the enrichment ratio was not above 0.25. The same measure for QWVC: not above 0.25; for RAFK: not above 0.25; for MFRY: not above 0.25. On to AMES, for which the enrichment ratio is not above 0.25. Take HPVC: the enrichment ratio was not above 0.25. For the variant LKRF, the enrichment ratio is not above 0.25. For DAIE, the enrichment ratio was not above 0.25. Consider SCIE, for which the enrichment ratio was not above 0.25. As to RQVS, the enrichment ratio is not above 0.25. As to IMCY, the enrichment ratio was not above 0.25.

With AQKC, the enrichment ratio is not above 0.25. Consider FKPE, for which the enrichment ratio was not above 0.25. The value for IDAR was not above 0.25; that for KLVM was not above 0.25. Regarding HICH, the enrichment ratio is not above 0.25.
